Experimental data taken from the supplement of paper PMC4604168 (melanoma cell lines).
The list shows a part of the results. Many values rest on one well or one pass, so single values are uncertain.

Key:
Assay in all cases: cell count relative to DMSO control; melanoma cells; higher = more viable cells
Conditions in all cases: library dose: low library concentration; 72 h
MZ2-MEL = tested on: MZ2-MEL
MeWo = tested on: MeWo
RPMI7951 = tested on: RPMI7951
RVH-421 = tested on: RVH-421
SkMel28 = tested on: SkMel28
SkMel2 = tested on: SkMel2
SkMel30 = tested on: SkMel30
SkMel5 = tested on: SkMel5
UACC257 = tested on: UACC257
UACC62 = tested on: UACC62
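Also: cell number obtained by counting DAPI-stained nuclei in high-throughput microscope images with image analysis software, screen run in 1,536-well plates.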

Row | SMILES | cell count (MZ2-MEL) [%] | cell count (MeWo) [%] | cell count (RPMI7951) [%] | cell count (RVH-421) [%] | cell count (SkMel28) [%] | cell count (SkMel2) [%] | cell count (SkMel30) [%] | cell count (SkMel5) [%] | cell count (UACC257) [%] | cell count (UACC62) [%]
1 | NCC(=O)Nc1ccc(-n2nc(C(F)(F)F)cc2-c2ccc3c(ccc4ccccc43)c2)cc1 + COc1cc2c(Oc3ccc4[nH]c(C)cc4c3F)ncnc2cc1OCCCN1CCCC1 [cediranib] (first compound 1 µM, partner dose 0.4 µM) | 90.1 | 65.7 | 108 | 113 | 79.8 | 67.5 | 42.8 | 89.7 | 88 | 86.7
2 | CO[C@@H]1[C@H](N(C)C(=O)c2ccccc2)C[C@H]2O[C@]1(C)n1c3ccccc3c3c4c(c5c6ccccc6n2c5c31)C(=O)NC4 [Midostaurin] + Cc1cc(N2CCOCC2)cc2[nH]c(-c3c(NC[C@@H](O)c4cccc(Cl)c4)cc[nH]c3=O)nc12 [BMS536924] (first compound 0.08 µM, partner dose 0.2 µM) | 103 | 88 | 87.6 | 82.2 | 86.1 | 71 | 102 | 81.5 | 60.2 | 95.1
3 | CO[C@@H]1[C@H](N(C)C(=O)c2ccccc2)C[C@H]2O[C@]1(C)n1c3ccccc3c3c4c(c5c6ccccc6n2c5c31)C(=O)NC4 [Midostaurin] + OCCn1cc(-c2cnc3nnn(Cc4ccc5ncccc5c4)c3n2)cn1 [PF04217903] (first compound 0.08 µM, partner dose 1 µM) | 109 | 95.8 | 95.4 | 4.2 | 102 | 96.2 | 110 | 106 | 107 | 91.4
4 | C=CCn1c(=O)c2cnc(Nc3ccc(N4CCN(C)CC4)cc3)nc2n1-c1cccc(C(C)(C)O)n1 + O=C(Nc1cccc(Cl)c1)Nc1ncc(CCNc2ncnc3ccsc23)s1 [SNS314] (first compound 0.02 µM, partner dose 0.0008 µM) | 98.6 | 96.4 | 91.2 | 86.5 | 98 | 98.6 | 114 | 79.4 | 81.8 | 77.1
5 | OCCn1cc(-c2cnc3nnn(Cc4ccc5ncccc5c4)c3n2)cn1 + O=C(O)c1ccc(-c2c[nH]c3ncc(-c4ccccc4)cc23)cc1C1CCCC1 [GSK650394] (first compound 1 µM, partner dose 0.16 µM) | 90.6 | 95.3 | 88.7 | 89.3 | 90.4 | 97.1 | 102 | 89.6 | 79.4 | 97.1
6 | C=CCn1c(=O)c2cnc(Nc3ccc(N4CCN(C)CC4)cc3)nc2n1-c1cccc(C(C)(C)O)n1 + CC(C)(C)c1cnc(CSc2cnc(NC(=O)C3CCNCC3)s2)o1 [SNS-032] (first compound 0.02 µM, partner dose 0.01 µM) | 103 | 101 | 89.4 | 84.9 | 68.8 | 78.2 | 86.7 | 73.6 | 79.2 | 71.6
7 | CN(C)S(=O)(=O)c1ccc2c(c1)/C(=C/c1cc3c([nH]1)CCCC3)C(=O)N2 + CN(NC(=O)CC(=O)NN(C)C(=S)c1ccccc1)C(=S)c1ccccc1 [STA4783] (first compound 0.4 µM, partner dose 0.006 µM) | 102 | 92.9 | 91.3 | 98.6 | 85.5 | 98.6 | 114 | 70.2 | 77 | 82.5
8 | CO[C@@H]1[C@H](N(C)C(=O)c2ccccc2)C[C@H]2O[C@]1(C)n1c3ccccc3c3c4c(c5c6ccccc6n2c5c31)C(=O)NC4 [Midostaurin] + COc1cc2c(Oc3ccc4[nH]c(C)cc4c3F)ncnc2cc1OCCCN1CCCC1 [cediranib] (first compound 0.08 µM, partner dose 0.4 µM) | 108 | 85.6 | 91.8 | 101 | 84.7 | 73.7 | 101 | 76.6 | 83 | 88.4
9 | C[C@]1(c2nc3c(C(N)=O)cccc3[nH]2)CCCN1 [Veliparib] + OCCn1cc(-c2cnc3nnn(Cc4ccc5ncccc5c4)c3n2)cn1 [PF04217903] (first compound 1.4 µM, partner dose 1 µM) | 96.9 | 100 | 93.1 | 112 | 97.2 | 91.6 | 92.7 | 110 | 103 | 77
10 | C=CCn1c(=O)c2cnc(Nc3ccc(N4CCN(C)CC4)cc3)nc2n1-c1cccc(C(C)(C)O)n1 + Cn1cncc1[C@@](N)(c1ccc(Cl)cc1)c1ccc2c(c1)c(-c1cccc(Cl)c1)cc(=O)n2C [tipifarnib] (first compound 0.02 µM, partner dose 0.01 µM) | 95.6 | 83.9 | 82.7 | 73.8 | 72.4 | 74.2 | 92.8 | 88.8 | 69.4 | 62.1
11 | OCCn1cc(-c2cnc3nnn(Cc4ccc5ncccc5c4)c3n2)cn1 + CN(NC(=O)CC(=O)NN(C)C(=S)c1ccccc1)C(=S)c1ccccc1 [STA4783] (first compound 1 µM, partner dose 0.006 µM) | 108 | 105 | 93.8 | 82.1 | 92.2 | 107 | 101 | 101 | 100 | 82.9
12 | C[C@]1(c2nc3c(C(N)=O)cccc3[nH]2)CCCN1 [Veliparib] + CO[C@@H]1[C@H](N(C)C(=O)c2ccccc2)C[C@H]2O[C@]1(C)n1c3ccccc3c3c4c(c5c6ccccc6n2c5c31)C(=O)NC4 [Midostaurin] (first compound 1.4 µM, partner dose 0.08 µM) | 95.3 | 79.9 | 92.9 | 83.9 | 89 | 81.1 | 108 | 104 | 73.4 | 77.8
13 | C[C@]1(c2nc3c(C(N)=O)cccc3[nH]2)CCCN1 [Veliparib] + CN(C)S(=O)(=O)c1ccc2c(c1)/C(=C/c1cc3c([nH]1)CCCC3)C(=O)N2 [SU6656] (first compound 1.4 µM, partner dose 0.4 µM) | 103 | 92.6 | 126 | 92.2 | 79.6 | 96.8 | 98.5 | 103 | 98.3 | 87.3
14 | C=CCn1c(=O)c2cnc(Nc3ccc(N4CCN(C)CC4)cc3)nc2n1-c1cccc(C(C)(C)O)n1 + C[C@@H]1CCN(C(=O)CC#N)C[C@@H]1N(C)c1ncnc2[nH]ccc12 [CP690550] (first compound 0.02 µM, partner dose 1 µM) | 103 | 104 | 90.8 | 87.7 | 73 | 95.6 | 108 | 87.8 | 67.4 | 84.3
15 | Cc1nc(Nc2ncc(C(=O)Nc3c(C)cccc3Cl)s2)cc(N2CCN(CCO)CC2)n1 [dasatanib] + C[C@@H]1CCN(C(=O)CC#N)C[C@@H]1N(C)c1ncnc2[nH]ccc12 [CP690550] (first compound 0.004 µM, partner dose 1 µM) | 85.4 | 97.5 | 79.1 | 80 | 81.3 | 86.4 | 94.4 | 97.7 | 93.9 | 73.9
16 | NC(=O)Nc1cc(-c2cccc(F)c2)sc1C(=O)N[C@H]1CCCNC1 + OCCn1cc(-c2cnc3nnn(Cc4ccc5ncccc5c4)c3n2)cn1 [PF04217903] (first compound 0.02 µM, partner dose 1 µM) | 118 | 117 | 105 | 132 | 120 | 113 | 95.3 | 110 | 144 | 105
17 | C=CCn1c(=O)c2cnc(Nc3ccc(N4CCN(C)CC4)cc3)nc2n1-c1cccc(C(C)(C)O)n1 + O=C(O)c1ccc(-c2c[nH]c3ncc(-c4ccccc4)cc23)cc1C1CCCC1 [GSK650394] (first compound 0.02 µM, partner dose 0.16 µM) | 103 | 92.7 | 89.5 | 85.8 | 81.2 | 89.2 | 90.5 | 97.5 | 97.3 | 79.6
18 | Cc1nc(Nc2ncc(C(=O)Nc3c(C)cccc3Cl)s2)cc(N2CCN(CCO)CC2)n1 [dasatanib] + CO[C@@H]1[C@H](N(C)C(=O)c2ccccc2)C[C@H]2O[C@]1(C)n1c3ccccc3c3c4c(c5c6ccccc6n2c5c31)C(=O)NC4 [Midostaurin] (first compound 0.004 µM, partner dose 0.08 µM) | 71.7 | 72 | 64 | 87.1 | 90.1 | 82.6 | 94.1 | 87.2 | 56.4 | 81.1
19 | C[C@]1(c2nc3c(C(N)=O)cccc3[nH]2)CCCN1 [Veliparib] + CC1(C)NC(=O)N(c2ccc([N+](=O)[O-])c(C(F)(F)F)c2)C1=O [nilutamide] (first compound 1.4 µM, partner dose 1 µM) | 99.3 | 95.4 | 86.4 | 111 | 93.4 | 101 | 93.9 | 89.3 | 86.4 | 83.7
20 | CO[C@@H]1[C@H](N(C)C(=O)c2ccccc2)C[C@H]2O[C@]1(C)n1c3ccccc3c3c4c(c5c6ccccc6n2c5c31)C(=O)NC4 [Midostaurin] + O=C(O)c1ccc(-c2c[nH]c3ncc(-c4ccccc4)cc23)cc1C1CCCC1 [GSK650394] (first compound 0.08 µM, partner dose 0.16 µM) | 88 | 77.2 | 112 | 86.5 | 96.2 | 86.4 | 103 | 82.7 | 85.6 | 96.5
21 | C[C@]1(c2nc3c(C(N)=O)cccc3[nH]2)CCCN1 [Veliparib] + O=C(O)c1ccc(-c2c[nH]c3ncc(-c4ccccc4)cc23)cc1C1CCCC1 [GSK650394] (first compound 1.4 µM, partner dose 0.16 µM) | 90.8 | 80.3 | 94.6 | 90.7 | 85.8 | 84.7 | 74.5 | 90.2 | 95.4 | 94.3
